Source: paper PMC5540273 (PLoS ONE, 2017)
For some of these results: This list holds what a sample rich in strong results left over. This is a selection; strong and weak results do not stand in their true shares.

Experiments:
Conditions in all cases: concentration: 1 μM,replicates: in singlicate; n = 1
NDR2 = tested on: NDR2
NEK10 = tested on: NEK10
NEK11 = tested on: NEK11
NEK1 = tested on: NEK1
NEK2 = tested on: NEK2
NEK3 = tested on: NEK3
NEK4 = tested on: NEK4
NEK5 = tested on: NEK5
NEK6 = tested on: NEK6
NEK7 = tested on: NEK7
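Also: KINOMEscan kinase panel screen.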

Row | Compound | %Inh (NDR2) | %Inh (NEK10) | %Inh (NEK11) | %Inh (NEK1) | %Inh (NEK2) | %Inh (NEK3) | %Inh (NEK4) | %Inh (NEK5) | %Inh (NEK6) | %Inh (NEK7)
1 | O=C1NC(=O)C(c2ccccc2Cl)=C1Nc1cccc(C(=O)O)c1 [SB-390526] | 17% | 6% | 5% | 0% | 0% | 7% | 0% | 2% | 0% | 0%
2 | CSc1ccc(NC2=C(c3cccc(Cl)c3)C(=O)NC2=O)cc1 [SB-341528] | 13% | 0% | 11% | 0% | 3% | 16% | 3% | 0% | 2% | 0%
3 | O=C1NC(=O)C(c2ccccc2)=C1Nc1cc(Cl)c(O)c(Cl)c1 [SB-390530] | 0% | 52% | 0% | 0% | 7% | 0% | 4% | 0% | 3% | 0%
4 | O=C1NC(=O)C(c2ccc(Cl)cc2)=C1Nc1cccc(O)c1 [SB-333613] | 10% | 50% | 0% | 0% | 12% | 11% | 15% | 0% | 0% | 10%
5 | Cc1ccc(C)c(Oc2nccc(-c3c(-c4ccc(F)cc4)ncn3C3CCNCC3)n2)c1.O=C(O)C(F)(F)F.O=C(O)C(F)(F)F.O=C(O)C(F)(F)F [SB-284852] | 0% | 0% | 0% | 0% | 97.4% | 28% | 0% | 0% | 7% | 0%
6 | COc1cccc(C2=C(Nc3ccc(SC)cc3)C(=O)NC2=O)c1 [SB-331032] | 15% | 32% | 0% | 4% | 0% | 21% | 0% | 19% | 0% | 0%
7 | O=C1NC(=O)C(c2ccc(Cl)cc2)=C1Nc1ccccc1 [SB-317661] | 5% | 28% | 22% | 0% | 0% | 25% | 0% | 0% | 0% | 0%
8 | O=C1NC(=O)c2c1c(-c1ccccc1)cc1[nH]c3ccc(O)cc3c21 | 0% | 43% | 0% | 9% | 14% | 33% | 10% | 14% | 11% | 8%
9 | O=C1NC(=O)C(c2ccccc2Cl)=C1Nc1ccccc1 [SB-376715] | 28% | 56% | 26% | 0% | 73% | 0% | 0% | 0% | 0% | 1%
10 | Cc1cc(C)cc(Oc2nccc(-c3c(-c4ccc(F)cc4)ncn3C3CCNCC3)n2)c1.O=C(O)C(F)(F)F.O=C(O)C(F)(F)F.O=C(O)C(F)(F)F [SB-284851] | 3% | 0% | 0% | 0% | 7% | 35% | 0% | 3% | 27% | 0%
11 | O=C(O)c1ccc(-c2nc(-c3ccc(F)cc3)c(-c3ccncc3)[nH]2)cc1 [SB-202620] | 12% | 6% | 0% | 0% | 0% | 20% | 0% | 4% | 13% | 0%
12 | O=C1NC(=O)C(c2ccc(Cl)cc2)=C1Nc1cccc(C(=O)O)c1 [SB-360737] | 0% | 55% | 0% | 0% | 0% | 17% | 10% | 17% | 0% | 0%
13 | O=C1NC(=O)C(c2ccccc2)=C1Nc1ccc(Cl)c(C(=O)O)c1 [SB-390532] | 3% | 88% | 37% | 0% | 6% | 10% | 12% | 4% | 0% | 0%
14 | COc1ccc(C2=C(Nc3cccc(Cl)c3)C(=O)NC2=O)cc1 [SB-326892] | 0% | 26% | 0% | 0% | 4% | 5% | 0% | 3% | 17% | 0%
15 | CS(=O)(=O)c1ccccc1-c1nc(-c2ccc(F)cc2)c(-c2ccncc2)[nH]1 [SB-213663] | 4% | 6% | 0% | 0% | 0% | 12% | 0% | 0% | 0% | 0%
16 | O=C1NC(=O)C(c2ccc(Cl)cc2)=C1Nc1ccc(O)c(Cl)c1 [SB-405367] | 20% | 55% | 0% | 0% | 3% | 29% | 6% | 0% | 10% | 0%
